# Article PMC4336329 (PLoS ONE, 2015)
# The campaign covered roughly 310,000 compounds. About 14,000 (4.5%) showed an effect of 50% or more. Effects have a minus sign here. This is one part of the list.
# Molecular target: human ether-à-go-go-related gene (hERG) potassium channel (human, UniProt Q12809)
# Experiment: primary screen, population patch clamp on CHO cells stably expressing hERG
# 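Note: peak tail current of the secondary pulse compared with the same well before compound.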
# human ether-à-go-go-related gene (hERG) potassium channel, sequence (Q12809 whole entry, looked up): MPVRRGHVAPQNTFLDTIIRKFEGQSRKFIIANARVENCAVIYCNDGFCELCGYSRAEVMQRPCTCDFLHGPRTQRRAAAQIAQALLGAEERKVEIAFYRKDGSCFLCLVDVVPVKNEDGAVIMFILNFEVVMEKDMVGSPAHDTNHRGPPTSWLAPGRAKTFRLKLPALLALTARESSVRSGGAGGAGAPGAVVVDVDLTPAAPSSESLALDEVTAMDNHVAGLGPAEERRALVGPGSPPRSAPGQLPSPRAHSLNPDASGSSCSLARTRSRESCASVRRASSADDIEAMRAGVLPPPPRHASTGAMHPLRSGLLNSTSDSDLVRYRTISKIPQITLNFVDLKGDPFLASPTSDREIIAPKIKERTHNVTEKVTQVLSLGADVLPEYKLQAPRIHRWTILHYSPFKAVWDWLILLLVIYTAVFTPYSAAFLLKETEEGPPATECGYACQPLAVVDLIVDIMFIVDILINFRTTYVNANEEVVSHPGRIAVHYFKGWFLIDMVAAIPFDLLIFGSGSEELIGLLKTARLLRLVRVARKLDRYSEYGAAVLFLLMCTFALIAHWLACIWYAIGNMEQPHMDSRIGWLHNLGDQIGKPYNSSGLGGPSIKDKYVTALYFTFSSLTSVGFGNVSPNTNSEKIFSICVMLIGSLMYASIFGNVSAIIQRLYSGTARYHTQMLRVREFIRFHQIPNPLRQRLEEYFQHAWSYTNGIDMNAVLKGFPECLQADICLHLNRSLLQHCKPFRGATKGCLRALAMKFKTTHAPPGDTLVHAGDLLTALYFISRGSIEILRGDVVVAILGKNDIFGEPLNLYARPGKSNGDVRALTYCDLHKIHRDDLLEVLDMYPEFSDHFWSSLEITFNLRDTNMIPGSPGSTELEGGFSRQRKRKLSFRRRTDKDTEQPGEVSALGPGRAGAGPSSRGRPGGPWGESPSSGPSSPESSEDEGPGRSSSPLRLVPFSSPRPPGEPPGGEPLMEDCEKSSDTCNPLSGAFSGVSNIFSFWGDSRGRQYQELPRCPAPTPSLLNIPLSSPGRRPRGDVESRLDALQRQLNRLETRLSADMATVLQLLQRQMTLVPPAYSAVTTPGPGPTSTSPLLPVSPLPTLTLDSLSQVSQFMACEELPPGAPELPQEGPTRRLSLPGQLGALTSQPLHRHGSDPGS
row,Compound,"hERG current change (%, negative = inhibition) at 10uM [%]"
1,Cc1ccc(OCC(=O)Nc2ccc(C(=O)O)cc2NC(=O)COc2ccc(C)c(C)c2)cc1C,6.5
2,Cc1ccc(NC(=O)CN(C)C(=O)C(Sc2ccccc2)c2ccccc2)cc1 (stereo not shown),2.05
3,O=C(COC(=O)CCc1nc2ccccc2n1-c1ccccc1)Nc1ccc(N2CCCCC2)cc1,2.85
4,COC(=O)c1ccc(CNC(=O)COC(=O)C23CC4CC(CC(C4)C2)C3)cc1,0.0278
5,Nc1nc(NCCO)nc(NCC2CCCO2)c1[N+](=O)[O-] (stereo not shown),9.69
6,CCc1nnc(NC(=O)CN2CCN(Cc3cccc(OC)c3)CC2)s1,-19
7,O=C(NC(=S)Nc1ccc(C(=O)N2CCOCC2)cc1)c1ccc([N+](=O)[O-])cc1,17.4
8,CCN(CC)c1ccc(C(=O)OCC(=O)Nc2cc3oc4ccccc4c3cc2OC)cc1,11.1
9,O=C(COC(=O)CCc1ccc(S(=O)(=O)N2CCOCC2)cc1)NC1CCCCCC1,-10.8
10,CC#CC(=O)N1CCCC(Cc2cccc(OC)c2)(C(=O)OCC)C1 (stereo not shown),16.6
11,CCC(C)NC(=O)Cn1cccc1C(=O)c1ccccc1 (stereo not shown),-2.44
12,COc1cccc(C2c3c(oc4ccc(Cl)cc4c3=O)C(=O)N2c2cc(C)on2)c1OC (stereo not shown),5.9
13,Cc1csc(NC(=O)c2ccc(Cn3nc(C)c(Br)c3C)o2)n1,-27.3
14,CN1CCN(CCCC(=O)c2ccc(F)cc2)CC1.Cl,-14.5
15,CN(C)CCn1c(=O)n(-c2ccc(F)cc2)c(=O)c2c3c(sc21)CCCCC3,-18.6
16,Nc1nc(CN2CCN(Cc3ccccc3)CC2)nc(Nc2ccc3c(c2)OCCO3)n1,-74.8
17,Cc1nn(Cc2ccc([N+](=O)[O-])cc2)c(=O)n1-c1cccc(F)c1,1.7
18,CCn1ccnc1CNC(=O)CC1C(=O)NCCN1Cc1ccc(OC)cc1OC (stereo not shown),-18
19,CCOc1ccc2oc(C(=O)OCC(=O)NC3CCCCC3)c(C)c2c1,-14.5
20,O=C(NCCN1CCN(c2ccccc2)CC1)c1cccn2c(=O)c3ccccc3nc12,-63
21,NC(=O)c1ccccc1NC(=O)c1ccccc1F,10.3
22,O=C(Nc1nc2ccccc2[nH]1)c1cccc([N+](=O)[O-])c1,6.51

row,Compound,"hERG current change (%, negative = inhibition) at 10uM [%]"
1,CCOCCCNC(=O)Cc1c(C(=O)O)[nH]c2ccc(Cl)cc12,1.32
2,CCNc1oc(-c2cccc3ccccc23)nc1C#N,15.7
3,COc1ccc(-c2cc(C(F)F)n3ncc(C(=O)Nc4cccc(S(=O)(=O)N5CCOCC5)c4)c3n2)cc1,12.1
4,COc1cc2c(cc1OC)C(=S)NC(C)(C)C2,17.2
5,COc1ccc(C(=O)NC2CC2)cc1OC1CCN(C/C=C/c2ccccc2)CC1,-79.9
6,CCOC(=O)C(C)CC(C)C(=O)N1CCOCCOCCN(C(=O)C(C)CC(C)C(=O)OCC)CCOCC1 (stereo not shown),10.6
7,CC(=O)Nc1ccc(C(=O)OCC(=O)N2CCN(C(=O)c3ccco3)CC2)cc1,2.69
8,COCCn1c(SCC(=O)N2CCOCC2)nnc1-c1ccncc1,-7.01
9,COc1ccccc1NC(=O)CSc1nnc(-c2ccncc2)n1CC1CCCO1 (stereo not shown),-8.46
10,Cc1ccc(S(=O)(=O)N2CCN(C(=O)CCn3cncn3)CC2)cc1,-2.43
11,C/C(=C\C(=O)C(F)(F)F)Nc1ccc(C)cc1,7
12,O=C(Cn1cnc([N+](=O)[O-])n1)NC1CC1,7.02
13,CNc1nnc(-c2cc3cc(Cl)ccc3oc2=O)s1,-6.28
14,c1ccc(-c2cn3c(n2)CCc2ccc4cccnc4c2-3)cc1,-3.14
15,O=C(CSc1nnc(-c2c[nH]c3ccccc23)o1)NCC1CCCO1 (stereo not shown),11.7
16,COC(=O)c1c(NC(=O)c2ccco2)sc2c1CCC2,19.3
17,CCCNC(=O)CSc1nc(Cc2ccccc2)nc2ccccc12,-7.11
18,COC(=O)c1cc(NC(=O)c2c(F)c(F)c(F)c(F)c2F)cc(C(=O)OC)c1,-3.29
19,CCOc1ccc(N(CC(=O)NCCSc2ccccn2)S(=O)(=O)c2ccc(Cl)cc2)cc1,6.45
20,CN(C)CCN(C(=O)c1cccc(Cl)c1)c1nc2c(Cl)cccc2s1.Cl,-52.6
21,Cn1cccc1C(=O)NC1CCCCC1,-10.8
